From article PMC9940316 (2023) come the findings set out here.

The target in the assay is human plasma IgG1 (human, UniProt P01857 = IgG part). The experiment in a line: SPR.

B1: FcγRIIIA wild type protein (receptor)
chain: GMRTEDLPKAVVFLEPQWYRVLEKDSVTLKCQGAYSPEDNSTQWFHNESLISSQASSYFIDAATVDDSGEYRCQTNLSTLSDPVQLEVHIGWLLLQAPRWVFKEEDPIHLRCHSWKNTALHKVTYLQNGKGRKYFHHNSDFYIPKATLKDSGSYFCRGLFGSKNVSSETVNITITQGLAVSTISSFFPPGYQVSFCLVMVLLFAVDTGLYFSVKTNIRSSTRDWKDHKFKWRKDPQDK
As to B1, the Kd was found to be 1900 nM.
